Data from PubChem BioAssay (NCI).
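96-well plates; 48 h exposure; 5 concentrations. Endpoints by linear interpolation between flanking doses. Not reached: highest tested concentration assigned. Here, GI50 denotes the concentration required for 50% inhibition of growth. Definition used: TGI = concentration required for complete inhibition of growth.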

Tested on: NCI-H322M lung
Assay: inhibition of tumour cell growth, NCI panel, 48 h

Structure (SMILES)	GI50 [nM]	TGI [µM]
NCCN1CCN(c2nc(-c3ccccc3)nc3nc(-c4ccccc4)oc23)CC1	1720	3.14
Fc1ccc(-c2cc3nc(C(Cl)Cl)nc(-c4ccc(Cl)cc4)n3n2)cc1	2080	5.9
